# According to PubChem BioAssay AID886 (National Center for Advancing Translational Sciences (NCATS), 2007):
# Several values for one entry are separate records, joined by “and”; a condition that tells them apart may be missing. Equal entries are not always repeated. Among all 73,000 compounds or so, about 2,500 (3.4%) were called active. The inconclusive results got no clear call from the source; some entries with a clear call stand among them for comparison. The call rests on the fitted dose curve; in most records, active means well fitted inhibition curve with a large enough effect; inconclusive means small, poorly fitted or top-dose-only effect; inactive means no such curve, though single readings can be large or run the other way. Potencies beside an inconclusive call are fits to weak or partial responses and may not hold up.
# Target: 3-hydroxyacyl-CoA dehydrogenase type-2 (Homo sapiens) (UniProt Q99714)
# UniProt Q99714, sequence (Q99714 whole entry, looked up): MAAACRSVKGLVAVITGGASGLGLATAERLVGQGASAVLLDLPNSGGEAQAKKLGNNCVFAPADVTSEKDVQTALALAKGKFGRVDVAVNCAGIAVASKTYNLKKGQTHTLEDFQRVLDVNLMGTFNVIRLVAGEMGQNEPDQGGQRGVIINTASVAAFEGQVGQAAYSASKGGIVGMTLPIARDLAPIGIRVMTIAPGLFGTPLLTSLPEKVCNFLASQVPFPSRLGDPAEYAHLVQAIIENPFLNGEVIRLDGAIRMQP
# UniProt Q99714, sequence (Q99714 whole entry, looked up): as above
# Assay: qHTS Assay for Inhibitors of HADH2 (Hydroxyacyl-Coenzyme A Dehydrogenase, Type II); further: nearly all actives have a fitted effect of over 60% in size
# Settings: recombinant HADH2, NADH fluorescence, beta-hydroxybutyryl-CoA; activity change, negative = inhibition: at 57.1 µM (top of the series)
# How it was run: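 NADH fluorescence (ex 360/em 450 nm) read every 30 s for 4 min; activity taken as last-minus-first time point difference. Enzyme 20 nM, NAD+ 1 mM, beta-hydroxybutyryl-CoA 90 uM, pH 9.0 Tris buffer.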
# On the % scale 0 is the no-effect control and ±100 the full control effect; potency means the concentration at half of the fitted maximal effect; tags describe the fitted curve by direction and shape.
Compound,Potency,"activity change, negative = inhibition"
CC(C)Oc1ccc(C(=O)N(Cc2ccco2)C2CCS(=O)(=O)C2)cc1 (stereo not drawn),"inconclusive: 7.94 µM [inhibitor, single point]",–
O=C(CCCc1nc2ccccc2s1)N1CCN(S(=O)(=O)c2cccs2)CC1,"inconclusive: 39.8 µM [inhibitor, single point]",–
COc1ncc2nc(-c3cccs3)c(=O)n(-c3ccccc3)c2n1,inactive,–
Cc1ccc2cc3cc(C(=O)NCCN4CCOCC4)oc3nc2c1,active: 31.6 µM,–
Cc1nn(-c2ccccc2)c(Cl)c1C(=O)Nc1nnc(C2CCCC2)s1,"inconclusive: 39.8 µM [inhibitor, single point]",–
CN1CC=C2C(C#N)=C(N)C(C#N)(C#N)C(Cc3ccccc3)C2C1 (stereo not drawn),"inconclusive: 39.8 µM [inhibitor, single point]",–
Cn1nnnc1SCc1cn2cccnc2n1,active: 12.6 µM,–
CCCn1cnc2cc(NCc3cccc(OC)c3O)ccc21,"inconclusive: 25.1 µM [inhibitor, partial curve]",–
N#Cc1nc(Cc2cccc3ccccc23)oc1NCCCN1CCOCC1,inactive,–
CCN1C(C)=C(C(=O)OC)C(c2ccccc2)N2C(=O)[C@](O)(C(=O)OC)C(c3ccccc3)C(C(C)=O)=C12 (stereo partly drawn),–,inactive: 10.6% [at 11.4 µM]
Cc1ccc(C2C(C#N)=C(N)SC(N)=C2C#N)o1,active: 2.51 µM,–
c1ccc2c(-c3nc4ncccc4o3)cccc2c1,active: 25.1 µM,–
CCN1CC=C2C(C#N)=C(N)C(C#N)(C#N)C(CCc3ccccc3)C2C1 (stereo not drawn),active: 31.6 µM,–
COC(=O)c1ccc2c(=O)n(CCN3CCOCC3)c(=S)[nH]c2c1,inactive,–
CCOc1cc(C2CC(=O)N3CN(C4CCCCC4)CSC3=C2C#N)ccc1O (stereo not drawn),active: 3.16 µM,–
CCCCn1nc(C(=O)N2CCc3ccccc32)c2ccccc2c1=O,"inconclusive: 3.16 µM [inhibitor, single point]",–
CCCCC(=O)Nc1cccc(NC(=O)c2ccc(Br)o2)c1,inactive,–
COc1ccccc1-c1cncnc1NCCN1CCOCC1,"inconclusive: 20 µM [inhibitor, single point]",–
COc1cc(-c2nnc3sc(-c4cccs4)nn23)cc(OC)c1OC,"inconclusive: 31.6 µM [inhibitor, single point]",–
c1cncc(-c2cc(NCc3cccs3)ncn2)c1,active: 25.1 µM,–
C[C@]12CC[C@@H]3c4ccc(O)cc4CC[C@H]3[C@@H]1CC[C@@H]2O,"inconclusive: 25.1 µM [inhibitor, single point]",–
COc1ccc(OC)c(C(=O)CSc2nnc(-c3cccs3)o2)c1,active: 25.1 µM,–
C=CCSc1nc(N)c(C(=O)Nc2ccccc2C)cc1C(N)=O,"inconclusive: 39.8 µM [inhibitor, single point]",–
CC[C@H](NC(C)C)[C@H](O)c1ccc(O)c(O)c1,"inconclusive: 794 nM [inhibitor, full curve] and inconclusive: 158 nM [inhibitor, full curve]",–

Compound,Potency,"activity change, negative = inhibition"
Cn1ccnc1Sc1nc2ccccc2nc1NS(=O)(=O)c1ccccc1,"inconclusive: 3.98 µM [inhibitor, partial curve]",–
CCOc1cc(/C=N/n2cnnc2)ccc1O,inactive,–
CC(C)C[C@@H](CC(=O)N[C@@H](CCCN)CC(=O)N[C@@H]1CCCC[C@H]1C(=O)N[C@H](CC(=O)N[C@@H](CCC(=O)O)CC(=O)O)CC(C)C)NC(=O)[C@@H]1CCCC[C@H]1N,"inconclusive: 39.8 µM [inhibitor, single point]",–
Cc1cc(C)n(-c2nc3ccccc3nc2N2CCN(S(=O)(=O)c3ccc(F)c(C)c3)CC2)n1,"inconclusive: 39.8 µM [inhibitor, single point]",–
Cc1cnc(CNc2ncncc2-c2ccccc2C)cn1,"inconclusive: 15.8 µM [inhibitor, partial curve]",–
Cc1ccccc1CN1CCN(CC(=O)NCc2ccc3c(c2)OCO3)C1=O,inactive,–
Cc1ccc(-c2cc3nc(C)cc(NCc4ccco4)n3n2)cc1,"inconclusive: 12.6 µM [inhibitor, single point]",–
CCCCOC(=O)Sc1nc2ccccc2o1,"inconclusive: 39.8 µM [inhibitor, single point]",–
COc1cc2c(cc1OC)CN(Cc1cccs1)CC2,"inconclusive: 6.31 µM [inhibitor, single point]",–
O=C(O)CSc1cccc2cccnc12,active: 31.6 µM,–
COc1ccc([C@H](O)c2ccccn2)cc1,–,inactive: 0.289% [at 11.4 µM]
c1ccc(-c2noc(-c3ccc4ccccc4c3)n2)nc1,"inconclusive: 39.8 µM [inhibitor, single point]",–
COCc1nnc(NC(=O)c2ccc(NC(C)=O)cc2)s1,"inconclusive: 39.8 µM [inhibitor, single point]",–
COc1ccc(Cn2c3nc4ccccc4nc3c3c(=O)n(Cc4ccco4)c(C)nc32)cc1,"inconclusive: 39.8 µM [inhibitor, single point]",–
Cc1ccc(NC(=O)N(CCCN2CCOCC2)Cc2cc3cc4c(cc3[nH]c2=O)OCO4)cc1,"inconclusive: 39.8 µM [inhibitor, single point]",–
Cn1c(C(C#N)C(=O)c2ccco2)nc2ccccc21 (stereo not drawn),inactive,–
CSc1nnc(-c2ccc(O)cc2)n1C,inactive,–
COc1ccc(N)c(C)c1,inactive,–
O=C(CN1CCOCC1)Nc1ccccc1-c1ccccc1,inactive,–
CN1CCc2cccc3c2[C@@H]1Cc1ccc(O)c(O)c1-3,active: 1.58 µM and active: 199 nM,–
Cc1nc(-c2cnn(-c3ccccc3)c2)c2cc(C)oc2n1,active: 25.1 µM,–
CC1CC2(CC(C)(C(=O)CSc3n[nH]c(-c4ccccc4Cl)n3)OC2=O)C(=O)O1 (stereo not drawn),"inconclusive: 31.6 µM [inhibitor, single point]",–
CC(=O)NC(CCS(C)(=O)=O)C(=O)Nc1cccc2ccccc12 (stereo not drawn),"inconclusive: 1.58 µM [inhibitor, partial curve]",–
Cn1ccnc1SCC(=O)Nc1ccc(Oc2ccccc2)cc1,inactive,–
